Assay results taken from publication PMC11676169.
Results are given in words; binding and its absence hold for the method and conditions named. Binding seen in cells or lysates may run through a third protein. Some results given as binding are weak or reduced against the parent protein; the word gives no strength. For some of these results: Sequences can lack the tags named with a protein.

The chains behind the UniProt entries cited, without tags or fusion partners. Where a name states a change or a piece, a line headed by the entry shows the natural chain unless it says otherwise.
UniProt P12956: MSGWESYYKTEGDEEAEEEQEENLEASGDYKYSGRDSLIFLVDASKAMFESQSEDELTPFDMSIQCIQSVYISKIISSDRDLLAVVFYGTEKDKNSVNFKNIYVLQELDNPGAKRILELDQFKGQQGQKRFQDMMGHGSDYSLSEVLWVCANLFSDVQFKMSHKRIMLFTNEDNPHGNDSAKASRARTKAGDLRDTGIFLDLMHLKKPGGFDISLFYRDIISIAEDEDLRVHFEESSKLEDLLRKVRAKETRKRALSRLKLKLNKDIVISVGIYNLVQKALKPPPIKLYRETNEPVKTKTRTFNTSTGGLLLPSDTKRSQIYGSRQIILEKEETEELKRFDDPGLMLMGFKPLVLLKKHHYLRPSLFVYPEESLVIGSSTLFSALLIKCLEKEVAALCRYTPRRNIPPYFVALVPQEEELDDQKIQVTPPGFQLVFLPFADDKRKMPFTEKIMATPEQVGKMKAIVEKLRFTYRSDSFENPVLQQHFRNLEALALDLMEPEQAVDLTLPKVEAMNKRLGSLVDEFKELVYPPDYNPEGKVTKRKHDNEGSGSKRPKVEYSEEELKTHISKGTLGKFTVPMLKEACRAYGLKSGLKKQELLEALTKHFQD
UniProt P13010: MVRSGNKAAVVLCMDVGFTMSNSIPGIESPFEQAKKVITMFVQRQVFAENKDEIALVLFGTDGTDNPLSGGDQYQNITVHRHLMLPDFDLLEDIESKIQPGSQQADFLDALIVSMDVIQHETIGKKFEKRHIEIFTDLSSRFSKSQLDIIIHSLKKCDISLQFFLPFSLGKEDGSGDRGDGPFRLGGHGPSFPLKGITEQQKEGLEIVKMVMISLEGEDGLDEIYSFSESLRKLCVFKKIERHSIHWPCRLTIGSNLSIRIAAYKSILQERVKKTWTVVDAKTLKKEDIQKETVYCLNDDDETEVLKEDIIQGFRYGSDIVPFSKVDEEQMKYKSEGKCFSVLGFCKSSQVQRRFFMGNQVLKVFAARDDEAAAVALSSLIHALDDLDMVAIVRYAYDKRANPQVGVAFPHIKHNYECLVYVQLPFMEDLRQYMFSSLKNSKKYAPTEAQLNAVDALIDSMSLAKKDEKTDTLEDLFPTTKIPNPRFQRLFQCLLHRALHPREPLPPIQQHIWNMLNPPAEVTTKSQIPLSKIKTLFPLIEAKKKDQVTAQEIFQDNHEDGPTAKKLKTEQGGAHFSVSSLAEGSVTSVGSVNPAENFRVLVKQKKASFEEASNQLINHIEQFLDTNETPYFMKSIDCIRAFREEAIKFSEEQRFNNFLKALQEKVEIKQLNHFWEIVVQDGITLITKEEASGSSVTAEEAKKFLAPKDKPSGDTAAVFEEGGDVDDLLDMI
UniProt P78527: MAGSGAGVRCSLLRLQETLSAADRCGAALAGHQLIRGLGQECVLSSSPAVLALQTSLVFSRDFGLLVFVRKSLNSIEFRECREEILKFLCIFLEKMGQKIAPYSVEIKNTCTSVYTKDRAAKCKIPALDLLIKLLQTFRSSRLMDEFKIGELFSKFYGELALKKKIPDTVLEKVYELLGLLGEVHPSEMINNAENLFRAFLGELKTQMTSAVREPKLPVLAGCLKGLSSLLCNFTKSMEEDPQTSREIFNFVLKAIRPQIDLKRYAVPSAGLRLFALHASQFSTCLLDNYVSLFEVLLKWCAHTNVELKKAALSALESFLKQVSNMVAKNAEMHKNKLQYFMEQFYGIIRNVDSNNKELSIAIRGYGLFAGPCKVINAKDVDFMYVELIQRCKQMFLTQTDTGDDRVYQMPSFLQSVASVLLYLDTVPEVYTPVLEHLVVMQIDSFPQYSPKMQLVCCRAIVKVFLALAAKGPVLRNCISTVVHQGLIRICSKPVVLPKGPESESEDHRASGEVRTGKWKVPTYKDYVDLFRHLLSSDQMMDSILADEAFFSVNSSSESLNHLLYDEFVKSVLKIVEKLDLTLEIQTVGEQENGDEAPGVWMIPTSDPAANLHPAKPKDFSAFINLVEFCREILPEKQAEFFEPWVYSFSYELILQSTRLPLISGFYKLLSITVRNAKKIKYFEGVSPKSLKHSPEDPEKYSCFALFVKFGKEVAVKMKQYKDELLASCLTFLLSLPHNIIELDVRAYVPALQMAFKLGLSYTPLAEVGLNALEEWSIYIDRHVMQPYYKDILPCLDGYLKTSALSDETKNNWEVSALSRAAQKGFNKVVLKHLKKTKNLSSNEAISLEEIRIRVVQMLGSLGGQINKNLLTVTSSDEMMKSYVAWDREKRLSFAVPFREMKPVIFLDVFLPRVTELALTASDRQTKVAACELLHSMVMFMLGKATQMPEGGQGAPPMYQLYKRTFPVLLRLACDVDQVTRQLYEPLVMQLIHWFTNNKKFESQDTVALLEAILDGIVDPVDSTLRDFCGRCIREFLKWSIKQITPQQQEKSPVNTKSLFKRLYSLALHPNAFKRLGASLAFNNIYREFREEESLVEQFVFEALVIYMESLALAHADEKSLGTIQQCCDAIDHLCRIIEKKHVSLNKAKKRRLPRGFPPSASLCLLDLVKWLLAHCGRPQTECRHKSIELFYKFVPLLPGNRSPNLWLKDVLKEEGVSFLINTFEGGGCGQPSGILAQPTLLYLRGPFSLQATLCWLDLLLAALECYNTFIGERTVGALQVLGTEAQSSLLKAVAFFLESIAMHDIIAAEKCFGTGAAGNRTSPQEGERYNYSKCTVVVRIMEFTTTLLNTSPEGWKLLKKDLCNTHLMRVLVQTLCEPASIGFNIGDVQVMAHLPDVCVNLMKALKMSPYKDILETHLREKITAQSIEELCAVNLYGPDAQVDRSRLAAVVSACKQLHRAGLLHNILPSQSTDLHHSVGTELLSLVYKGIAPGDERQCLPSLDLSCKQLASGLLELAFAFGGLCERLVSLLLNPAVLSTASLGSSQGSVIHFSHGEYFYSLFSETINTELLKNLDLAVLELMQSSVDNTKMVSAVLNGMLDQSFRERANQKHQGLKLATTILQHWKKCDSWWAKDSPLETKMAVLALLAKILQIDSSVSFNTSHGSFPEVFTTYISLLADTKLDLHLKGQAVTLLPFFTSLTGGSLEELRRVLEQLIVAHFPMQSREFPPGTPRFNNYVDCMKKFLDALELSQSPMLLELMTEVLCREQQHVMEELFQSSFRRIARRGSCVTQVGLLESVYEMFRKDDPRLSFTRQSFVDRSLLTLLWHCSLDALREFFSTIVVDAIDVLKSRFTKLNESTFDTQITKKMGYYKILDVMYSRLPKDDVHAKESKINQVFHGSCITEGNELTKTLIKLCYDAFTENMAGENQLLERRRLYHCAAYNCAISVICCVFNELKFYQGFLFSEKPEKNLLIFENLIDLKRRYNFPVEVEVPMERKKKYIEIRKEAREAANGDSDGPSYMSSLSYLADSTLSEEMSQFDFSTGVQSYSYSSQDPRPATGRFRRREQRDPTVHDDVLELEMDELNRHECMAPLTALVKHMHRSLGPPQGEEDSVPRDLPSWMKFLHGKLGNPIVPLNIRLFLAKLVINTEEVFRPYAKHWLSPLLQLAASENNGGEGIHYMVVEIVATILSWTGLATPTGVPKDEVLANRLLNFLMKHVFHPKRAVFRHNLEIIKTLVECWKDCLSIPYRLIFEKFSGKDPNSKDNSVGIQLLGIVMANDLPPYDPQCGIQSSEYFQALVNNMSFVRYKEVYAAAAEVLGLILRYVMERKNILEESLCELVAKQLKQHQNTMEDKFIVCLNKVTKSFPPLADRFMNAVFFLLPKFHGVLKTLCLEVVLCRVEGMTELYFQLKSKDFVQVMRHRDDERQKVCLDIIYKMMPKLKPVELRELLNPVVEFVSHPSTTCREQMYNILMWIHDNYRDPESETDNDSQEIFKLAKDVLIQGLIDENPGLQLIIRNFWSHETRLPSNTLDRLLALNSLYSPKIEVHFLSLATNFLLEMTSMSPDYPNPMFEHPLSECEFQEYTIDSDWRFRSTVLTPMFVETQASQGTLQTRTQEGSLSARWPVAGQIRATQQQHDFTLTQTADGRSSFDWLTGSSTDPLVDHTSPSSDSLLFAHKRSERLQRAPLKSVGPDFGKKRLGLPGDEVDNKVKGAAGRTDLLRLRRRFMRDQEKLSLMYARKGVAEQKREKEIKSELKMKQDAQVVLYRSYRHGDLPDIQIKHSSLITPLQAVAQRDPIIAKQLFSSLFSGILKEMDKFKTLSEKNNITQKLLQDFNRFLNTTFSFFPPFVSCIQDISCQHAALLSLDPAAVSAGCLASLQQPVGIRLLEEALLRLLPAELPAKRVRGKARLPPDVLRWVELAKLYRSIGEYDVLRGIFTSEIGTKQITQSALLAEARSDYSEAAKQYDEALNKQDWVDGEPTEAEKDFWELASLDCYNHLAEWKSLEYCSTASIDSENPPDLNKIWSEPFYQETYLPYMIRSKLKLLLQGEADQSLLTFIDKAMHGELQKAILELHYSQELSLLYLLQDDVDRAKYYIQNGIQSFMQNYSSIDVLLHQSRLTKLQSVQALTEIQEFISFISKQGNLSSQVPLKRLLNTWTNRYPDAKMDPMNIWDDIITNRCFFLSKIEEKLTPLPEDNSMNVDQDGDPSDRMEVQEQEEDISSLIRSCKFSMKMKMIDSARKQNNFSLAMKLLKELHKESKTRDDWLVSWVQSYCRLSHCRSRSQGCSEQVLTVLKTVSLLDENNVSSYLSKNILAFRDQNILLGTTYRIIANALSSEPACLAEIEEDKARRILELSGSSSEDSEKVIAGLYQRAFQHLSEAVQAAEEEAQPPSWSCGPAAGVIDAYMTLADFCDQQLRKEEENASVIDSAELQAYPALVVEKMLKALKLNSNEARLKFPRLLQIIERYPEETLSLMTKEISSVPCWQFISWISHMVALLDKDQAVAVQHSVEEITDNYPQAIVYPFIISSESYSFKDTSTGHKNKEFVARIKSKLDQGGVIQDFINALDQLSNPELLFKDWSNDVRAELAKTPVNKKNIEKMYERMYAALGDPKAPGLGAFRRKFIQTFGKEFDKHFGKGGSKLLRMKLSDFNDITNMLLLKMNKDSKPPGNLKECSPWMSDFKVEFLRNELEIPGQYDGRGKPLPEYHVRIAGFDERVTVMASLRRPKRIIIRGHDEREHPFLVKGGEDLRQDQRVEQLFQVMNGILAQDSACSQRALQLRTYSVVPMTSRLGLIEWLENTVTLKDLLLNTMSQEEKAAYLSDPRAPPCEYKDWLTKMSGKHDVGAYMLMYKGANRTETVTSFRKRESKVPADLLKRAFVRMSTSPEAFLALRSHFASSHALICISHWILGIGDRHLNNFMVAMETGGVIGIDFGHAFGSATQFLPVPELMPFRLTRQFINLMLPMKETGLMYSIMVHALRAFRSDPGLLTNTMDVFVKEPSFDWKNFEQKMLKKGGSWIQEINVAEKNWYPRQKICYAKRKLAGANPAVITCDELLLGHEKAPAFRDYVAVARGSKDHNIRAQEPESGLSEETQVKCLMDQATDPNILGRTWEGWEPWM

Key:
[1] = molecular target: T1, endogenously expressed BCAT1 in CCRF-CEM T-ALL cells (human (endogenous in CCRF-CEM)) (UniProt P54687); experiment: co-IP; endogenous proteins, CCRF-CEM cells lysed in NETN buffer; IP with mouse anti-BCAT1 antibody or irrelevant mouse Ig, TrueBlot anti-mouse Ig beads; immunoblot
T1 sequence: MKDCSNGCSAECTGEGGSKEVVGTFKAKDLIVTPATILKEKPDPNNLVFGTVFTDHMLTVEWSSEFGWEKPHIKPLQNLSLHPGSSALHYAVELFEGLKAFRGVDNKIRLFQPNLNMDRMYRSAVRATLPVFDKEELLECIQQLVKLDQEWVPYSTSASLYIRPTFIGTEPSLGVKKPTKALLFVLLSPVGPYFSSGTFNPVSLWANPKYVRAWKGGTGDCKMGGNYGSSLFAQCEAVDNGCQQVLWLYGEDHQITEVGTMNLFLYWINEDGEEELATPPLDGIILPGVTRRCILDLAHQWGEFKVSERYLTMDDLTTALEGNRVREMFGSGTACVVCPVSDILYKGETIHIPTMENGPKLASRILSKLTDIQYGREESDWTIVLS

[2] = molecular target: T2, epitope-tagged BCAT1 (BCAT1 myc/DDK), expressed in HEK 293T cells (UniProt P54687); experiment: co-IP; HEK 293T stably expressing BCAT1 myc/DDK, transfected with GFP-KU70 or GFP-KU80; NETN lysis buffer (150 mM NaCl, 0.5% NP-40); anti-c-Myc beads overnight at 4 °C; immunoblot anti-BCAT1 and anti-GFP
T2 sequence: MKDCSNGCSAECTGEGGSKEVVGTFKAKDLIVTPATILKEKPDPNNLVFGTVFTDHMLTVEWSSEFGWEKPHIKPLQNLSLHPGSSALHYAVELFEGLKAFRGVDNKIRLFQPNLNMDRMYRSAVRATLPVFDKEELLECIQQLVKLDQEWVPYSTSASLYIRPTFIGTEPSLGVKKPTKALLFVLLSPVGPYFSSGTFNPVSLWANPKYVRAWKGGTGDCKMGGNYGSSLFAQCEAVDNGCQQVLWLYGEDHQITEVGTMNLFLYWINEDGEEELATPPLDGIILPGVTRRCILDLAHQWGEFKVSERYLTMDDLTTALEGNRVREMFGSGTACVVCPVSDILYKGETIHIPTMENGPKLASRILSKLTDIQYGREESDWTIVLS

[3] = molecular target: T2, epitope-tagged BCAT1 (BCAT1 myc/DDK), expressed in HEK 293T cells; experiment: co-IP; HEK 293T stably expressing BCAT1 myc/DDK, transfected with HA-tagged XRCC6 or XRCC5 full length or truncation mutants; modified NETN lysis buffer (150 mM NaCl, 1% Triton-X); anti-FLAG beads overnight at 4 °C; immunoblot anti-HA
[4] = molecular target: T3, double-tagged BCAT1 (BCAT1 myc-DDK), stably expressed in CUTLL1 T-ALL cells (UniProt P54687); experiment: co-IP; CUTLL1 cells expressing BCAT1 myc/DDK; anti-FLAG M2 beads overnight, washes in modified NETN buffer, elution with FLAG peptide; immunoblot for BCAT1, KU70 and KU80
T3 sequence: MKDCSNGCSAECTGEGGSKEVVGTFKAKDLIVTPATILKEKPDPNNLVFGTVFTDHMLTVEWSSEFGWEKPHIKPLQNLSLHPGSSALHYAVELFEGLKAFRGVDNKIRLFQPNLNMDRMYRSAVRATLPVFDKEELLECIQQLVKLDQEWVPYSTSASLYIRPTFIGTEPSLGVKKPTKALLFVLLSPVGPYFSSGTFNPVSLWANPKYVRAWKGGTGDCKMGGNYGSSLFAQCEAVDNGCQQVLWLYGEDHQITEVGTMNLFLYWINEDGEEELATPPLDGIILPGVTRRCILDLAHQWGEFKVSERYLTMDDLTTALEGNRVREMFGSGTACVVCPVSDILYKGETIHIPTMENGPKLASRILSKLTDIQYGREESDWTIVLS

[5] = molecular target: T1, endogenously expressed BCAT1 in CCRF-CEM T-ALL cells (human (endogenous in CCRF-CEM)); experiment: proximity ligation; fixed and permeabilised T-ALL cells, untreated or treated with etoposide (1 µM) for 24 h; rabbit anti-KU70 and mouse anti-BCAT1 primary antibodies, Duolink
[6] = molecular target: HA-tagged KU70 full length (pcDNA-HAXRCC6, 1-609) (UniProt P12956); experiment: co-IP; HEK 293T co-transfected with full-length HA-XRCC6 or HA-XRCC5 and myc-DDK-tagged BCAT1 deletion mutants; modified NETN lysis buffer; anti-HA beads overnight at 4 °C; immunoblot
[7] = molecular target: HA-tagged KU80 full-length protein (pLenti-HAXRCC5, 1-732) (UniProt P13010); experiment: as above
[8] = molecular target: GFP/FLAG-KU70 (pEGFP-C1-FLAG-Ku70) (UniProt P12956); experiment: co-IP; HEK 293T stably expressing BCAT1 myc/DDK, transfected with GFP-KU70 or GFP-KU80; NETN lysis buffer (150 mM NaCl, 0.5% NP-40); GFP-Trap agarose overnight at 4 °C; immunoblot anti-BCAT1, anti-Flag and anti-GFP
[9] = molecular target: GFP/FLAG-KU80 (pEGFP-C1-FLAG-Ku80) (UniProt P13010); experiment: as above

For “DNA-PKcs, endogenous in CCRF-CEM T-ALL cells (from UniProt P78527 1-4128)”, which binding [1] is on record?
The binding was “binds”.

Which binding [2] does the source give for “GFP/FLAG-KU70 (pEGFP-C1-FLAG-Ku70) (from UniProt P12956 1-609)” here?
Its binding is “binds”.

For “GFP/FLAG-KU80 (pEGFP-C1-FLAG-Ku80) (from UniProt P13010 1-732)”, which binding [2] is on record?
Its binding is “binds”.

How did the binding [3] turn out when “HA-tagged KU70 C-terminal (aa 501-609) (from UniProt P12956 501-609) (domain or fragment)” was run?
Its binding is “binds”.

With “HA-tagged KU70 Ku domain (aa 351-500) (from UniProt P12956 351-500) (domain or fragment)” as the molecule, how does the binding [3] read?
Its binding is “binds”.

Which binding [3] does the source give for “HA-tagged KU80 N-terminal domain (aa 1-240) (from UniProt P13010 1-240) (domain or fragment)” here?
Its binding is “binds”.

For “KU70 (XRCC6), endogenous in CUTLL1 cells (from UniProt P12956 1-609)”, which binding [4] is on record?
The binding was “binds”.

What does the source list for “KU70, endogenously expressed in CCRF-CEM T-ALL cells (from UniProt P12956 1-609)”?
binding [1]: binds; binding [5]: binds weakly

For “KU80 (XRCC5), endogenous in CUTLL1 cells (from UniProt P13010 1-732)”, which binding [4] is on record?
Its binding is “binds”.

For “KU80, endogenously expressed in CCRF-CEM T-ALL cells (from UniProt P13010 1-732)”, which binding [1] is on record?
Its binding is “binds”.

B1: myc-DDK-tagged BCAT1 aminotransferase IV (AT IV) domain (aa 94-343) (domain or fragment, UniProt P54687 94-343)
chain: LFEGLKAFRGVDNKIRLFQPNLNMDRMYRSAVRATLPVFDKEELLECIQQLVKLDQEWVPYSTSASLYIRPTFIGTEPSLGVKKPTKALLFVLLSPVGPYFSSGTFNPVSLWANPKYVRAWKGGTGDCKMGGNYGSSLFAQCEAVDNGCQQVLWLYGEDHQITEVGTMNLFLYWINEDGEEELATPPLDGIILPGVTRRCILDLAHQWGEFKVSERYLTMDDLTTALEGNRVREMFGSGTACVVCPVSDI
For B1, which binding [6] is on record?
The binding was “binds”.

And the binding [7]?
The binding was “binds”.

B2: epitope-tagged BCAT1 (BCAT1 myc/DDK), expressed in HEK 293T cells (enzyme, UniProt P54687 1-386)
chain: MKDCSNGCSAECTGEGGSKEVVGTFKAKDLIVTPATILKEKPDPNNLVFGTVFTDHMLTVEWSSEFGWEKPHIKPLQNLSLHPGSSALHYAVELFEGLKAFRGVDNKIRLFQPNLNMDRMYRSAVRATLPVFDKEELLECIQQLVKLDQEWVPYSTSASLYIRPTFIGTEPSLGVKKPTKALLFVLLSPVGPYFSSGTFNPVSLWANPKYVRAWKGGTGDCKMGGNYGSSLFAQCEAVDNGCQQVLWLYGEDHQITEVGTMNLFLYWINEDGEEELATPPLDGIILPGVTRRCILDLAHQWGEFKVSERYLTMDDLTTALEGNRVREMFGSGTACVVCPVSDILYKGETIHIPTMENGPKLASRILSKLTDIQYGREESDWTIVLS
For B2, which binding [8] is on record?
The binding was “binds”.

What about the binding [9] of the same molecule?
Its binding is “binds”.

B3: myc-DDK-tagged N-terminal BCAT1 (aa 1-197) (domain or fragment, UniProt P54687 1-197)
chain: MKDCSNGCSAECTGEGGSKEVVGTFKAKDLIVTPATILKEKPDPNNLVFGTVFTDHMLTVEWSSEFGWEKPHIKPLQNLSLHPGSSALHYAVELFEGLKAFRGVDNKIRLFQPNLNMDRMYRSAVRATLPVFDKEELLECIQQLVKLDQEWVPYSTSASLYIRPTFIGTEPSLGVKKPTKALLFVLLSPVGPYFSSG
How did the binding [6] turn out when B3 was run?
Its binding is “no binding”.

What about the binding [7] of the same molecule?
The binding was “no binding”.

B4: myc-DDK-tagged C-terminal BCAT1 (aa 198-373) (domain or fragment, UniProt P54687 198-373)
chain: TFNPVSLWANPKYVRAWKGGTGDCKMGGNYGSSLFAQCEAVDNGCQQVLWLYGEDHQITEVGTMNLFLYWINEDGEEELATPPLDGIILPGVTRRCILDLAHQWGEFKVSERYLTMDDLTTALEGNRVREMFGSGTACVVCPVSDILYKGETIHIPTMENGPKLASRILSKLTDIQ
How did the binding [6] turn out when B4 was run?
Its binding is “no binding”.

And the binding [7]?
Its binding is “no binding”.
